# From PubChem BioAssay (Tox21)
# Where “and” joins values, the source holds several entries; their conditions need not be identical. Equal values may be shown once. The inconclusive results got no clear call from the source; some entries with a clear call stand among them for comparison. For part of these data: A potency beside an inconclusive call is a rough fit, not a confirmed value. Some compounds were tested as several samples or in several runs, with calls that do not always agree. Calls of active or inactive are those of the source. Unless noted, calls come from the whole dose curve; as a rule, active = well fitted curve in the direction sought with a large enough effect in the repeat runs; inconclusive = weak or mixed curves; inactive = no such curve, though single readings can be large; an effect the other way counts as inactive or inconclusive.
# Legend:
# [1] = qHTS assay to identify small molecule antagonists of the androgen receptor (AR) signaling pathway using the MDA cell line in the presence of 0.5 nM R1881 - cell viability counter screen (AID 1259242); note: nearly all actives have a fitted effect of over 45% in size; note: potency is the fitted concentration of half-maximal effect
# Procedure, shortened: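 Cells seeded at 3,000/well and allowed 5 hr at 37C, 0% CO2 before compound transfer and R1881 (0.5 nM final) addition; 16 hr later, live-cell protease fluorescence indicated cytotoxicity.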
# [2] = target: Androgen receptor (Homo sapiens) (UniProt P10275); test: qHTS assay to identify small molecule antagonists of the androgen receptor (AR) signaling pathway using the MDA cell line in the presence of 0.5 nM R1881 (AID 1259243); note: potency is the fitted concentration of half-maximal effect; nearly all actives have a fitted effect of over 50% in size
# UniProt P10275, sequence (P10275 whole entry, looked up): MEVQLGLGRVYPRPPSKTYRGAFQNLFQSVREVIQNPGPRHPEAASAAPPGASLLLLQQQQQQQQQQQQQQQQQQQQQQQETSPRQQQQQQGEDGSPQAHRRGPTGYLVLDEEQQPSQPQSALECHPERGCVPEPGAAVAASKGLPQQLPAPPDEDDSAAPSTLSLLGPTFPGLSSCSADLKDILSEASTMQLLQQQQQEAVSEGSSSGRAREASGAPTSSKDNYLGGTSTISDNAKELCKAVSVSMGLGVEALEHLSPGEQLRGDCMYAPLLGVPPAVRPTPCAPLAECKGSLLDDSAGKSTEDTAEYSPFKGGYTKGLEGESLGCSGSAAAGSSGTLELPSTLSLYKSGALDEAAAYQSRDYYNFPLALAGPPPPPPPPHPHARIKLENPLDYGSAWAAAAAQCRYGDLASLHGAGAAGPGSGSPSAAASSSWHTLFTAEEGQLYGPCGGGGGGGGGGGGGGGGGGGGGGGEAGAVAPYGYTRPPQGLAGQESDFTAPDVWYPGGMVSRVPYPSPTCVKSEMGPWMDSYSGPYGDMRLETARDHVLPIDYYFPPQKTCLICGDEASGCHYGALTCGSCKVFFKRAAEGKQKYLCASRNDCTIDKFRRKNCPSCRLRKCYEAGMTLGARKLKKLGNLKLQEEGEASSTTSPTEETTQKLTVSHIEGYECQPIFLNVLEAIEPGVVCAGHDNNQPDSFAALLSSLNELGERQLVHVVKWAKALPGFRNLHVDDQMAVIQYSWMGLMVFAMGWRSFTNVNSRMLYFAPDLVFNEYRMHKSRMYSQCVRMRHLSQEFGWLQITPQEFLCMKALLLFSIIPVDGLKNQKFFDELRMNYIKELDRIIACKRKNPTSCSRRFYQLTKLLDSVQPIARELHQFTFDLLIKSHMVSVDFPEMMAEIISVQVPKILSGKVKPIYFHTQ
# Procedure, shortened: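 Luminescence from an AR/GR-responsive MMTV-luciferase construct in MDA-kb2 breast carcinoma cells, read 30 min after ONE-Glo, following 16 hr co-treatment with compounds and 0.5 nM R1881.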
# [3] = target: Estrogen receptor (Homo sapiens) (UniProt P03372); test: qHTS assay to identify small molecule antagonists of the estrogen receptor alpha (ER-alpha) signaling pathway using the BG1 cell line in the presence of 0.1 nM 17-beta-estradiol (AID 1259244); note: nearly all actives have a fitted effect of over 50% in size; note: potency is the fitted concentration of half-maximal effect; for activity change, negative = inhibition: % is set by controls: 0 for no effect and ±100 for the full control effect
# UniProt P03372, sequence (P03372 whole entry, looked up): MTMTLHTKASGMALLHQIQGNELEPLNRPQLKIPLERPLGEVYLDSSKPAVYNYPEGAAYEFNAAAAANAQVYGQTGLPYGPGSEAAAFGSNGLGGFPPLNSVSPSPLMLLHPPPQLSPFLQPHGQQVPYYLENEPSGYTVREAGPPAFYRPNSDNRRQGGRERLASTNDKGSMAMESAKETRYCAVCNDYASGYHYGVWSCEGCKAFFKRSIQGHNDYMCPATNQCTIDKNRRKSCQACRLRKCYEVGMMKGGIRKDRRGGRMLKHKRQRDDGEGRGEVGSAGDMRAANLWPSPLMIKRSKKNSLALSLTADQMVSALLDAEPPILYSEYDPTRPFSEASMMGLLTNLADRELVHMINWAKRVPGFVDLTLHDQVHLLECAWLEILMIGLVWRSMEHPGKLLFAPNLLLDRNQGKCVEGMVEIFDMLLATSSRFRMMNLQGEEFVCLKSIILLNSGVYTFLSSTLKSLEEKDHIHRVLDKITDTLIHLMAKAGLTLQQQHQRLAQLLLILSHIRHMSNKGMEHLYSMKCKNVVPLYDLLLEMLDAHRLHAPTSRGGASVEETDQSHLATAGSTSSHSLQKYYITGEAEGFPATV
# Procedure, shortened: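 Luciferase signal from VM7Luc4E2 ERE-reporter cells, co-dosed with test compound and 0.1 nM final 17beta-estradiol for 22 h, read with ONE-Glo.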
# [4] = qHTS assay to identify small molecule HDAC inhibitors - cell viability counter screen (AID 1259365); note: potency is the fitted concentration of half-maximal effect; nearly all actives have a fitted effect of over 50% in size
# Procedure, shortened: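 Wild-type HCT-116 cells were seeded at 1,500 per well, incubated overnight at 37 C, then exposed to compounds in DMSO for 2hr. Viability was read by CellTiter-Glo luminescence after 30min at room temperature.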
# [5] = qHTS assay to identify small molecule agonists of the sonic hedgehog signaling (Shh) pathway - cell viability counter screen (AID 1259366); note: potency is the fitted concentration of half-maximal effect; nearly all actives have a fitted effect of over 50% in size
# Procedure, shortened: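 NIH/3T3-derived 3T3 Gli1-Luc cells (stable Gli1-responsive firefly luciferase reporter) were seeded, rested 4 hr at 37 C/5% CO2, then exposed to compounds in DMSO for 24 hr; viability was read by CellTiter-Fluor fluorescence in the same wells.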
# [6] = qHTS assay to identify small molecule antagonists of the sonic hedgehog signaling (Shh) pathway - cell viability counter screen (AID 1259367); note: potency is the fitted concentration of half-maximal effect; nearly all actives have a fitted effect of over 55% in size
# Procedure, shortened: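 Viability was read by CellTiter-Fluor fluorescence in the same wells, reagent added 23 hr into compound treatment and incubated 1 hr at 37C. The 3T3 Gli1-Luc reporter cells (2,000/well) received conditioned medium after compound and ran 24 hr.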
# [7] = qHTS assay to identify small molecule agonists of the androgen receptor (AR) signaling pathway in the presence of an antagonist - cell viability counter screen (AID 1259379); note: potency is the fitted concentration of half-maximal effect; nearly all actives have a fitted effect of over 25% in size
# Procedure, shortened: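 Each compound was tested at 15 concentrations on MDA-kb2 cells in the presence of 3.0uM nilutamide. Viability was measured by CellTiter-Fluor fluorescence after a 16 hr incubation at 37C in a CO2-free atmosphere.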
# [8] = qHTS assay to identify small molecule agonists of the estrogen receptor beta (ER-beta) signaling pathway - cell viability counter screen (AID 1259380); note: potency is the fitted concentration of half-maximal effect; nearly all actives have a fitted effect of over 30% in size
# Procedure, shortened: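 Compounds dissolved in DMSO were pin-transferred onto ER-beta-UAS-bla HEK293T cells that had settled 6 hr, and exposure ran 16 hr at 37C. Following the reporter read, CellTiter-Glo luminescence after 30 min at room temperature indicated cytotoxicity.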
# [9] = target: Thyrotropin receptor (Homo sapiens) (UniProt P16473); test: qHTS assay to identify small molecule antagonists of the thyroid stimulating hormone receptor (TSHR) signaling pathway (AID 1259385; calls by dose curve; note: potency is the fitted concentration of half-maximal effect; nearly all actives have a fitted effect of over 20% in size); conditions: TSHR-HEK293 cAMP HTRF, TSH-stimulated antagonist mode; activity change, negative = inhibition: at 92.4 µM (top of the series) unless noted
# UniProt P16473, sequence (P16473 whole entry, looked up): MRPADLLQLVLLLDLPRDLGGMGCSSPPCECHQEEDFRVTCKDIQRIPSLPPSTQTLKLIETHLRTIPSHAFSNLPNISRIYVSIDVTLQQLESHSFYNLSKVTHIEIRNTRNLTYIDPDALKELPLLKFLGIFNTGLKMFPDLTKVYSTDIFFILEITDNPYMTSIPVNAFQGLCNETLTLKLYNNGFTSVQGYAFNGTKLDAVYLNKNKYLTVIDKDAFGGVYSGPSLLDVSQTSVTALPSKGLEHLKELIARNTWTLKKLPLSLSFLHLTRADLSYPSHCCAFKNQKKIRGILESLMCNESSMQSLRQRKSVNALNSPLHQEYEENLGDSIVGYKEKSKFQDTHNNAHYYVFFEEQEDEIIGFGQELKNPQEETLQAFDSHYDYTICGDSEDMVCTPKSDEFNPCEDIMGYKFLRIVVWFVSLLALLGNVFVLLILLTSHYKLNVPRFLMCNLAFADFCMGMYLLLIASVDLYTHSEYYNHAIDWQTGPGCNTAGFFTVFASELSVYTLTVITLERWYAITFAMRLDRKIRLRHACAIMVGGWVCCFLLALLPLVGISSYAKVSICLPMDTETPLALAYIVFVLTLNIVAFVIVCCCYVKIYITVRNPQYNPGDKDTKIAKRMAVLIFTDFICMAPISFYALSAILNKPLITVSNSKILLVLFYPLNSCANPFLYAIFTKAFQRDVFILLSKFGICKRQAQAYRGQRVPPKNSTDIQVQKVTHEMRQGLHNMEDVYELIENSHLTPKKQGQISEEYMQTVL
# Procedure, shortened: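 Antagonist mode: compound-treated TSHR-expressing HEK293 cells were stimulated with 1.5 ng/mL TSH (final) in presence of Ro20-1724 for 30 min at RT. HTRF cAMP detection after 1 h; each compound tested at 15 concentrations, triplicate.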
# [10] = qHTS assay to identify small molecule agonists of the estrogen receptor alpha (ER-alpha) signaling pathway in the presence of an antagonist - cell viability counter screen (AID 1259386);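 note: cells exposed to compounds for 22 h at 37 °C before the viability read; nearly all actives have a fitted effect of over 30% in size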; note: potency is the fitted concentration of half-maximal effect
# Procedure, shortened: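 Using estrogen-depleted VM7Luc4E2 cells, the 15-concentration compound series was applied together with 10.0nM ICI-182,780 and incubated 22hr at 37C/5% CO2. Cell viability was then scored by CellTiter-Fluor.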
# [11] = qHTS assay to identify small molecule agonists or antagonists of the thyroid stimulating hormone receptor (TSHR) signaling pathway - wild type cell line counter screen (AID 1259384; calls by dose curve; note: % is set by controls: 0 for no effect and ±100 for the full control effect); conditions: HEK293 wild type, cAMP HTRF counter-screen; cAMP activity change: at 92.4 µM (top of the series), stronger effect = higher value unless noted
# Procedure, shortened: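 Counter screen in untransfected Hek293: compounds (15-point titration, triplicate) plus phosphodiesterase inhibitor Ro20-1724 added after 18 h plating; 30 min RT. Intracellular cAMP via competitive d2/cryptate immunoassay, 1 h incubation.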
# [12] = target: Estrogen receptor beta (Homo sapiens) (UniProt Q92731); test: qHTS assay to identify small molecule agonists of the estrogen receptor beta (ER-beta) signaling pathway (AID 1259377; active = well fitted activation curve with a large enough effect in the signal ratio in the repeat runs, not every such curve was filed as active; inconclusive = weak or mixed curves, or effect the other way; the % refers to the signal ratio; note: potency is the fitted concentration of half-maximal effect); conditions: ER-beta-UAS-bla HEK293T, beta-lactamase FRET ratio, 16 h; activation: at 92.4 µM (top of the series) unless noted
# UniProt Q92731, sequence (Q92731 whole entry, looked up): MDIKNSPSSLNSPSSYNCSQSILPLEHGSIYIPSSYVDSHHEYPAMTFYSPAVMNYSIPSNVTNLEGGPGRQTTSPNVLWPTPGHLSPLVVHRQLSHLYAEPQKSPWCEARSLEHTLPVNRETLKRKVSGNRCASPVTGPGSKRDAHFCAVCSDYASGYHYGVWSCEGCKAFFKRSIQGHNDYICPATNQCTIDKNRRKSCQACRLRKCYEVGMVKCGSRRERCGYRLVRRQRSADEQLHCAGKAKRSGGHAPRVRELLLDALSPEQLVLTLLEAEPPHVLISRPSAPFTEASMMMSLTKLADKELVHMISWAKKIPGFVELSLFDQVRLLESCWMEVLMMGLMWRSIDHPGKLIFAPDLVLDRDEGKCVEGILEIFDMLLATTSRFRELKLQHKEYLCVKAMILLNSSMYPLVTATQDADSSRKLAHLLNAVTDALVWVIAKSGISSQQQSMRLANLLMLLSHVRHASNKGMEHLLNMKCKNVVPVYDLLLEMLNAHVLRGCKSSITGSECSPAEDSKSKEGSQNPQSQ
# Procedure, shortened: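 ER-beta-UAS-bla HEK293T (GripTite) cells carrying a UAS-driven beta-lactamase reporter, in medium with 2% charcoal-stripped FBS, were exposed to compounds for 16 hr at 37C; LiveBLAzer B/G FRET substrate was then added and fluorescence read after 2 hours at room temperature.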
# [13] = target: Estrogen receptor beta (Homo sapiens) (UniProt Q92731); test: qHTS assay to identify small molecule antagonists of the estrogen receptor beta (ER-beta) signaling pathway (AID 1259378; active = well fitted inhibition curve with a large enough effect in the signal ratio in the repeat runs, not every such curve was filed as active; inconclusive = weak or mixed curves, or effect the other way; inactive = no such curve, though single readings can be large or run the other way; the % refers to the signal ratio; note: potency is the fitted concentration of half-maximal effect); conditions: ER-beta-UAS-bla HEK293T, beta-lactamase FRET ratio, 16 h; activity, negative = inhibition: at 92.4 µM (top of the series) unless noted
# Procedure, shortened: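 Antagonist mode: compounds added to beta-lactamase reporter HEK293T ER-beta-UAS cells stimulated with E2 (1nM final), 16 hr at 37C. LiveBLAzer B/G FRET substrate, 2 hours room temperature, fluorescence read-out.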
# [14] = qHTS assay to identify small molecule antagonists of the estrogen receptor beta (ER-beta) signaling pathway - cell viability counter screen (AID 1259382); note: potency is the fitted concentration of half-maximal effect; nearly all actives have a fitted effect of over 55% in size
# Procedure, shortened: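 CellTiter-Glo ATP luminescence measured after the LiveBLAzer read in the same wells; ER-beta-UAS-bla HEK293T cells, 16 hr compound treatment with 1nM 17-beta-estradiol agonist at 37C, 5% CO2.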
# [15] = qHTS assay to identify small molecule phospholipidosis (PLD) inducers (AID 1259344; active = well fitted curve in the direction sought with a large enough effect; inconclusive = small, poorly fitted or top-dose-only effect, or another doubt; inactive = no such curve, though single readings can be large; an effect the other way counts as inactive or inconclusive; note: potency is the fitted concentration of half-maximal effect)
# Procedure, shortened: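 Phospholipid accumulation was scored by imaging: fixed, Hoechst-counterstained HepG2 cells stained with LipidTOX Red after 24 h compound exposure at 37 C. Read-outs were pit count and pit intensity per well or per cell, with amiodarone and DMSO controls.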
# [16] = qHTS assay to identify small molecule antagonists of the sonic hedgehog signaling (Shh) pathway (AID 1259369; calls by dose curve; note: potency is the fitted concentration of half-maximal effect; nearly all actives have a fitted effect of over 45% in size)
# Procedure, shortened: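 Read-out is luminescence from a firefly luciferase gene controlled by the Gli1 response element, in 3T3Gli1-Luc cells pre-incubated 4hr then exposed to compounds and conditioned medium for 24hr.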
# [17] = qHTS assay to identify small molecule HDAC inhibitors (AID 1259364);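 note: wild-type HCT-116 cells with endogenous class I/II HDAC activity; potency is the fitted concentration of half-maximal effect; nearly all actives have a fitted effect of over 45% in size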
# Procedure, shortened: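 HCT-116 wt cells, 1,500/well, overnight attach. Compounds (DMSO) 2 h, 37 °C. HDAC-Glo I/II, 30 min RT. Luminescence.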
# Tags give direction and shape of the fitted curve or compound fluorescence and quenching.
smiles,measurement,setting,value
Cc1cc(OCCOCC[N+](C)(C)Cc2ccccc2)ccc1C(C)(C)CC(C)(C)C,Potency,[1],active: 43 µM and active: 26.6 µM
same,Potency,[2],active: 13.6 µM and active: 13.3 µM
same,Potency,[3],active: 60.8 µM and active: 29.8 µM
same,Potency,[4],inconclusive: 68.2 µM [cytotoxic]
same,Potency,[5],"active: 48.3 µM and inconclusive: 33.5 µM [cytotoxic, single point]"
same,Potency,[6],"inconclusive: 68.2 µM [cytotoxic, single point] and inconclusive: 33.5 µM [cytotoxic, single point]"
same,Potency,[7],active: 54.2 µM and active: 29.8 µM
same,Potency,[8],active: 27.1 µM and active: 13.3 µM
same,Potency,[9],"inconclusive: 68.2 µM [falling, partial curve, poor fit]"
same,Potency,[10],"inconclusive: 68.2 µM [cytotoxic] and inconclusive: 21.1 µM [cytotoxic, partial curve, poor fit]"
CCC(C)Nc1ccc(NC(C)CC)cc1 (centres undefined),Potency,[1],active: 24.8 µM
same,Potency,[2],active: 1.57 µM
same,Potency,[3],active: 2.48 µM
same,Potency,[4],active: 24.8 µM
same,Potency,[5],active: 11.1 µM
same,Potency,[6],active: 19.7 µM
same,Potency,[7],active: 24.8 µM
same,cAMP activity change,[11],inconclusive: -3.89%
same,Potency,[9],"inconclusive: 44.1 µM [falling, partial curve]"
same,Potency,[10],active: 17.6 µM
CCCCCCCCCCCCCC[P+](CCCC)(CCCC)CCCC (tested in a mixture with another compound),Potency,[1],active: 19.4 µM
same,Potency,[3],active: 1.73 µM
same,Potency,[4],"inconclusive: 69 µM [cytotoxic, single point]"
same,Potency,[5],active: 27.5 µM
same,Potency,[12],"inconclusive: 30.8 µM [falling, full curve]"
same,Potency,[13],inconclusive: 38.8 µM [cytotoxic]
same,Potency,[7],active: 7.74 µM
same,Potency,[14],active: 27.5 µM
same,Potency,[9],active: 69 µM
CC[C@]1(O)C[C@H]2CN(CCc3c([nH]c4ccccc34)[C@@](C(=O)OC)(c3cc4c(cc3OC)N(C=O)[C@H]3[C@@](O)(C(=O)OC)[C@H](OC(C)=O)[C@]5(CC)C=CCN6CC[C@]43[C@@H]65)C2)C1,Potency,[1],inactive
same,Potency,[2],"inconclusive: 29.8 µM [inhibitor, single point]"
same,Potency,[15],"inconclusive: 5.01 µM [activator, single point]"
same,Potency,[5],"inconclusive: 26.6 µM [cytotoxic, partial curve]"
same,Potency,[6],"inconclusive: 0.211 µM [cytotoxic, full curve]"
same,Potency,[16],active: 26.6 nM
same,Potency,[7],"inconclusive: 0.15 µM [cytotoxic, full curve]"
same,Potency,[8],"inconclusive: 16.8 µM [rising, partial curve, poor fit]"
same,Potency,[10],inactive
O=C1c2c(O)ccc(O)c2C(=O)c2c(NCCNCCO)ccc(NCCNCCO)c21,Potency,[1],active: 21.1 µM
same,Potency,[2],"inconclusive: 4.22 µM [inhibitor, full curve, poor fit]"
same,Potency,[13],"inconclusive: 6.68 µM [inhibitor, full curve, poor fit]"
same,Potency,[7],active: 11.9 µM
same,cAMP activity change,[11],"inconclusive: 1.07% [at 42.5 µM, stronger effect = higher value]"
same,Potency,[9],"inconclusive: 11.9 µM [falling, partial curve]"
same,Potency,[10],active: 26.6 µM
O=P(O)(O)O,Potency,[1],inactive
O=C(Nc1ccccc1SSc1ccccc1NC(=O)c1ccccc1)c1ccccc1,Potency,[1],"inconclusive: 61.4 µM [cytotoxic, partial curve, poor fit]"
same,Potency,[3],active: 27.4 µM and inactive
same,Potency,[17],active: 27.4 µM and active: 19.3 µM
same,Potency,[6],active: 13.8 µM and active: 12.2 µM
same,Potency,[16],active: 4.88 µM and active: 5.45 µM
same,Potency,[13],"inconclusive: 54.8 µM [cytotoxic, partial curve] and inconclusive: 30.6 µM [cytotoxic]"
same,Potency,[8],"inconclusive: 5.48 µM [cytotoxic, full curve] and inconclusive: 4.86 µM [cytotoxic, full curve]"
same,Potency,[9],"inconclusive: 68.9 µM [falling, partial curve, poor fit]"
